Some of these results come from one statement about several compounds together. For at least one compound, name, drawing or mass did not settle the structure.
Experiments:
Test in all cases: Test Example 1: herbicidal effect test using paddy field flooding treatment
Assay type in all cases: in vivo
Settings in all cases: water surface application, 21 days after treatment
[1] = tested on: Echinochloa crus-galli var. oryzicola (EC)
[2] = tested on: Schoenoplectiella juncoides (SJ)
[3] = tested on: Monochoria vaginalis (MV)
Ammannia multiflora (AM) = tested on: Ammannia multiflora (AM)

Measured: herbicidal efficacy (degree (%) of suppression of growth of terrestrial part)

CCOC(=O)N(c1ccccc1CN1Cc2ccccc2C1=O)S(=O)(=O)C(F)(F)F [Compound 2-55]
≥ 80%: [1]; dose 250 g a.i./ha | [2]; dose 63 g a.i./ha | [3]; dose 63 g a.i./ha | Ammannia multiflora (AM); dose 63 g a.i./ha

O=C1c2c(F)ccc(F)c2CCN1Cc1ccccc1N(C(=O)CCO)S(=O)(=O)C(F)(F)F [Compound 3-129]
≥ 80%: [1]; dose 250 g a.i./ha | [2]; dose 63 g a.i./ha | [3]; dose 63 g a.i./ha | Ammannia multiflora (AM); dose 16 g a.i./ha

CS(=O)(=O)CCOC(=O)N(c1ccccc1CN1CCc2c(F)ccc(F)c2C1=O)S(=O)(=O)C(F)(F)F [Compound 3-237]
≥ 80%: [1]; dose 500 g a.i./ha | [2]; dose 250 g a.i./ha | [3]; dose 63 g a.i./ha | Ammannia multiflora (AM); dose 16 g a.i./ha

O=C1c2c(F)ccc(F)c2CCN1Cc1ccccc1N(C(=O)OC1CC1)S(=O)(=O)C(F)(F)F [Compound 3-184]
≥ 80%: [1]; dose 500 g a.i./ha | [2]; dose 63 g a.i./ha | [3]; dose 63 g a.i./ha | Ammannia multiflora (AM); dose 16 g a.i./ha

CC(C)=CC(=O)N(c1ccccc1CN1CCc2c(F)ccc(F)c2C1=O)S(=O)(=O)C(F)(F)F [Compound 3-117]
≥ 80%: [1]; dose 250 g a.i./ha | [2]; dose 250 g a.i./ha | [3]; dose 63 g a.i./ha | Ammannia multiflora (AM); dose 16 g a.i./ha

O=C1c2c(Cl)cccc2CCCN1Cc1ccccc1NS(=O)(=O)C(F)(F)F [Compound 5-2, N-[2-(N-trifluoromethanesulfonyl)aminobenzyl]-9-chloro-2,3,4,5-tetrahydro-1H-2-benzazepin-1-one]
≥ 80%: [1]; dose 500 g a.i./ha | [2]; dose 500 g a.i./ha | [3]; dose 250 g a.i./ha | Ammannia multiflora (AM); dose 125 g a.i./ha

N#CCCOC(=O)N(c1ccccc1CN1CCc2c(F)ccc(F)c2C1=O)S(=O)(=O)C(F)(F)F [Compound 3-226]
≥ 80%: [1]; dose 500 g a.i./ha | [2]; dose 31 g a.i./ha | [3]; dose 500 g a.i./ha | Ammannia multiflora (AM); dose 16 g a.i./ha

O=C1c2ccccc2CCCN1Cc1ccccc1NS(=O)(=O)C(F)(F)F [Compound 5-1]
≥ 80%: [1]; dose 500 g a.i./ha | [2]; dose 250 g a.i./ha | [3]; dose 125 g a.i./ha | Ammannia multiflora (AM); dose 125 g a.i./ha

CC1(C)OCC(OC(=O)N(c2ccccc2CN2CCc3c(F)ccc(F)c3C2=O)S(=O)(=O)C(F)(F)F)CO1 [Compound 3-208]
≥ 80%: [1]; dose 500 g a.i./ha | [2]; dose 63 g a.i./ha | [3]; dose 125 g a.i./ha | Ammannia multiflora (AM); dose 16 g a.i./ha

O=C1c2c(F)ccc(F)c2CCN1Cc1cc(F)ccc1NS(=O)(=O)C(F)(F)F [Compound 4-16]
≥ 80%: [1]; dose 125 g a.i./ha | [2]; dose 250 g a.i./ha | [3]; dose 63 g a.i./ha | Ammannia multiflora (AM); dose 16 g a.i./ha

CSCC(=O)N(c1ccccc1CN1CCc2c(F)ccc(F)c2C1=O)S(=O)(=O)C(F)(F)F [Compound 3-135]
≥ 80%: [1]; dose 500 g a.i./ha | [2]; dose 125 g a.i./ha | [3]; dose 31 g a.i./ha | Ammannia multiflora (AM); dose 16 g a.i./ha

CCOC(=O)N(c1ccccc1CN1CCc2ccsc2C1=O)S(=O)(=O)C(F)(F)F [Compound 6-22, N-[2-(N-ethoxycarbonyl-N-trifluoromethanesulfonyl)aminobenzyl]-5,6-dihydrothieno[2,3-c]pyridin-7(4H)-one]
≥ 80%: [1]; dose 250 g a.i./ha | [2]; dose 63 g a.i./ha | [3]; dose 250 g a.i./ha | Ammannia multiflora (AM); dose 16 g a.i./ha

O=C1c2c(F)ccc(F)c2CCN1Cc1ccccc1NS(=O)(=O)C(F)(F)F [Compound 3-63]
≥ 80%: [1]; dose 250 g a.i./ha | [2]; dose 63 g a.i./ha | [3]; dose 31 g a.i./ha | Ammannia multiflora (AM); dose 16 g a.i./ha

O=C1c2c(F)ccc(F)c2CCN1Cc1ccccc1N(C(=O)OC1COCOC1)S(=O)(=O)C(F)(F)F [Compound 3-207]
≥ 80%: [1]; dose 250 g a.i./ha | [2]; dose 63 g a.i./ha | [3]; dose 125 g a.i./ha | Ammannia multiflora (AM); dose 16 g a.i./ha

O=C1c2c(F)ccc(Cl)c2CCN1Cc1ccccc1NS(=O)(=O)C(F)(F)F [Compound 3-64, N-[2-(N-trifluoromethanesulfonyl)aminobenzyl]-5-chloro-8-fluoro-3,4-dihydroisoquinolin-1(2H)-one]
≥ 80%: [1]; dose 250 g a.i./ha | [2]; dose 125 g a.i./ha | [3]; dose 125 g a.i./ha | Ammannia multiflora (AM); dose 16 g a.i./ha

CCOC(=O)N(c1ccccc1CN1CCc2c(F)ccc(Cl)c2C1=O)S(=O)(=O)C(F)(F)F [Compound 3-154, N-[2-(N-ethoxycarbonyl-N-trifluoromethanesulfonyl)aminobenzyl]-8-chloro-5-fluoro-3,4-dihydroisoquinolin-1(2H)-one]
≥ 80%: [1]; dose 250 g a.i./ha | [2]; dose 125 g a.i./ha | [3]; dose 63 g a.i./ha | Ammannia multiflora (AM); dose 16 g a.i./ha

CC(Cl)OC(=O)N(c1ccccc1CN1CCc2c(F)ccc(F)c2C1=O)S(=O)(=O)C(F)(F)F (stereo not drawn) [Compound 3-173]
≥ 80%: [1]; dose 250 g a.i./ha | [2]; dose 63 g a.i./ha | [3]; dose 63 g a.i./ha | Ammannia multiflora (AM); dose 16 g a.i./ha

CNC(=O)N(c1ccccc1CN1CCc2c(F)ccc(F)c2C1=O)S(=O)(=O)C(F)(F)F [Compound 3-243]
≥ 80%: [1]; dose 125 g a.i./ha | [2]; dose 250 g a.i./ha | [3]; dose 125 g a.i./ha | Ammannia multiflora (AM); dose 16 g a.i./ha

O=C1c2c(F)ccc(F)c2CCN1Cc1ccccc1N(C(=O)OC1CCC1)S(=O)(=O)C(F)(F)F [Compound 3-185]
≥ 80%: [1]; dose 500 g a.i./ha | [2]; dose 63 g a.i./ha | [3]; dose 125 g a.i./ha | Ammannia multiflora (AM); dose 16 g a.i./ha

Cc1ccc2c(c1F)C(=O)N(Cc1ccccc1NS(=O)(=O)C(F)(F)F)CC2 [Compound 3-53]
≥ 80%: [1]; dose 500 g a.i./ha | [2]; dose 500 g a.i./ha | [3]; dose 250 g a.i./ha | Ammannia multiflora (AM); dose 31 g a.i./ha

Cc1ccc(CN2CCc3ccccc3C2=O)c(NS(=O)(=O)C(F)(F)F)c1 [Compound 4-2]
≥ 80%: [1]; dose 500 g a.i./ha | [2]; dose 250 g a.i./ha | [3]; dose 250 g a.i./ha | Ammannia multiflora (AM); dose 250 g a.i./ha

Cc1nc2c(o1)C(=O)N(Cc1ccccc1NS(=O)(=O)C(F)(F)F)CC2 [Compound 6-8]
≥ 80%: [1]; dose 500 g a.i./ha | [2]; dose 31 g a.i./ha | [3]; dose 125 g a.i./ha | Ammannia multiflora (AM); dose 16 g a.i./ha

O=C1c2c(Cl)ccc(F)c2CCN1Cc1ccccc1NS(=O)(=O)C(F)(F)F [Compound 3-69]
≥ 80%: [1]; dose 125 g a.i./ha | [2]; dose 63 g a.i./ha | [3]; dose 31 g a.i./ha | Ammannia multiflora (AM); dose 16 g a.i./ha

O=C1c2c(F)ccc(F)c2CCN1Cc1ccccc1N(C(=O)OC1CCOC1)S(=O)(=O)C(F)(F)F (stereo not drawn) [Compound 3-202]
≥ 80%: [1]; dose 250 g a.i./ha | [2]; dose 31 g a.i./ha | [3]; dose 16 g a.i./ha

CC(C)COC(=O)N(c1ccccc1CN1CCc2c(F)ccc(F)c2C1=O)S(=O)(=O)C(F)(F)F [Compound 3-164]
≥ 80%: [1]; dose 125 g a.i./ha | [2]; dose 125 g a.i./ha | Ammannia multiflora (AM); dose 16 g a.i./ha

CCOC(=O)N(c1ccccc1CN1CCc2cc(C)cc(F)c2C1=O)S(=O)(=O)C(F)(F)F [Compound 3-146]
≥ 80%: [1]; dose 500 g a.i./ha | [2]; dose 63 g a.i./ha | Ammannia multiflora (AM); dose 31 g a.i./ha

N#Cc1cccc2c1C(=O)N(Cc1ccccc1NS(=O)(=O)C(F)(F)F)CC2 [Compound 3-10]
≥ 80%: [1]; dose 250 g a.i./ha | [2]; dose 250 g a.i./ha | Ammannia multiflora (AM); dose 31 g a.i./ha | Ammannia multiflora (AM); dose 63 g a.i./ha

From patent US20250289788A1, “HALOALKYL SULFONANILIDE COMPOUND AND HERBICIDE CONTAINING THE SAME” (SDS BIOTECH K.K., priority 2022, published 2025)
